PubChem BioAssay AID485294 (National Center for Advancing Translational Sciences (NCATS), 2010)
Screen size: about 370,000 compounds; about 150 (0.041%) were called active. Inconclusive results, whose numbers are uncertain, are shown with a selection of clear calls. Calls follow the shape of the dose curve; as a rule, active = well fitted inhibition curve with a large enough effect; inconclusive = small, poorly fitted or top-dose-only effect; inactive = flat fitted curve, though single readings scatter. No potency is given beside an inconclusive call; the fits are too rough.

These compounds were tested against Beta-lactamase (Escherichia coli (strain K12)) (UniProt P00811) (assay: qHTS Inhibitors of AmpC Beta-Lactamase (assay with detergent)). Conditions: AmpC hydrolysis of nitrocefin, absorbance 480 nm, 0.01% Triton; activity change, negative = inhibition: at 114 µM (top of the series).
Procedure, shortened: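 AmpC (5.3 nM in the dispensed reagent) in 20 mM phosphate pH 7.0 with 0.01% (detergent screen) or 0.0001% Triton X-100 was preincubated with compounds for 15 min at room temperature. Nitrocefin was then added from an 800 uM solution, and hydrolysis was followed at 480 nm.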
Also: nearly all actives have a fitted effect of over 25% in size.
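For activity change, negative = inhibition in this document: 0% = no-compound wells and -100% = no-enzyme wells.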
Potency is read from the fitted curve at half-maximal effect; tags tell the direction and shape of the fitted curve.

Sequence of UniProt P00811 (P00811 whole entry, looked up): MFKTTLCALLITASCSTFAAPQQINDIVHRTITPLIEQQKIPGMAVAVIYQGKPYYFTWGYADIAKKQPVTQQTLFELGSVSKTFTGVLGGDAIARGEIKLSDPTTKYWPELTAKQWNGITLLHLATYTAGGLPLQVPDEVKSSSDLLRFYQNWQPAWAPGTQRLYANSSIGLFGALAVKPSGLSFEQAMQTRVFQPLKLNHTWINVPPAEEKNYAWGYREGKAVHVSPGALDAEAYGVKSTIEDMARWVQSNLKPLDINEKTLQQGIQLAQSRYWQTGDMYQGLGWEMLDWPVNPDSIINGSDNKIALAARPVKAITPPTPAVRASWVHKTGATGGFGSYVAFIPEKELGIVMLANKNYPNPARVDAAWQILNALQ

| SMILES | Potency | activity change, negative = inhibition |
| --- | --- | --- |
| CCCCN(C(=O)c1ccco1)C1CCS(=O)(=O)C1 (stereo not given) | inconclusive [inhibitor, full curve, poor fit] |  |
| O=C(CCc1ccccc1)Nc1ccc(NC(=O)c2ccco2)nc1 |  | inactive: -5.8% |
| N#Cc1cc2c(nc1SCc1nc3ccccc3[nH]1)CCC2 |  | inactive: -13.3% |
| COc1cc2ccccc2cc1C(=O)Nc1ccccc1Cl |  | inactive: -10.5% |
| CCOc1ccccc1/C=N/Nc1ccnc(=O)[nH]1 |  | inactive: 4.1% |
| S=C(S)N1CCCC1 | inconclusive [inhibitor, full curve, poor fit] |  |
| CC(C)C(NS(=O)(=O)c1ccc2c(c1)Cc1cc(S(=O)(=O)NC(C(=O)O)C(C)C)ccc1-2)C(=O)O (stereo not given) |  | inactive: -3.19% |
| Nc1ccc(Oc2ccc([N+](=O)[O-])cc2[N+](=O)[O-])cc1 | inconclusive [inhibitor, full curve] |  |
| CCS(=O)(=O)N1CCc2cc(C(=O)Nc3cccc(NC(C)=O)c3)ccc21 | inconclusive [inhibitor, single point] |  |
| COc1ccc(-c2ccc(=O)n(CC(=O)Nc3ccccc3C(F)(F)F)n2)cc1 |  | inactive: 4.65% |
| Cc1cc(NC(=O)CSCC(=O)N(c2cccc(Cl)c2)C(C(=O)NC2CCCCC2)c2ccc(O)c(O)c2)no1 (stereo not given) |  | inactive: -3.31% |
| Cc1cc2occ(CC(=O)NC3CCCc4ccccc43)c2cc1C (stereo not given) | inconclusive [inhibitor, full curve, poor fit] |  |
| CS(=O)(=O)Cc1ccc(C(=O)N2CCCC2c2cccs2)cc1 (stereo not given) | inconclusive [inhibitor, full curve, poor fit] |  |
| CCC1(C)N(O)C(C)(C)C(c2ccc(F)cc2)=[N+]1[O-] (stereo not given) | inconclusive [inhibitor, partial curve] |  |
| COc1ccccc1C(=O)NC(=O)COC(=O)c1ccc(Cl)nc1 | inconclusive [inhibitor, full curve, poor fit] |  |
| CC1=CCC2C(=O)N(c3cccc(C(=O)Nc4ccc(Cl)cc4)c3)C(=O)C2C1 (stereo not given) | inconclusive [inhibitor, full curve, poor fit] |  |
| COc1cccc(/C=N/Nc2ncnc(Cl)c2N)c1O | inconclusive [inhibitor, partial curve, poor fit] |  |
| CC1(C)Cc2c(cnn2-c2ccccc2)C(NC(=O)CCc2ccncc2)C1 (stereo not given) | inconclusive [inhibitor, full curve, poor fit] |  |
| CSc1nc2sc3c(c2c2nncn12)CCC3 | inconclusive [inhibitor, full curve, poor fit] |  |
| COc1c(C)cccc1C(=O)NC(=S)Nc1ccc2c(c1)Cc1ccccc1-2 | inconclusive [inhibitor, single point] |  |
